# Among all 360,000 compounds or so, about 6,000 (1.7%) were called active. Inconclusive results, whose numbers are uncertain, are shown with a selection of clear calls. Calls come from the whole dose curve; as a rule, active = well fitted cell-killing curve with a large enough effect; inconclusive = small, poorly fitted or top-dose-only effect, or effect the other way; inactive = flat fitted curve, though single readings scatter. No potency is given beside an inconclusive call; the fits are too rough.
# Assay: qHTS for induction of synthetic lethality in tumor cells producing 2HG: qHTS for the HT-1080-NT fibrosarcoma cell line;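 note: NT is the 2HG producing partner of a matched IDH1 knockdown line; nearly all actives have a fitted effect of over 55% in size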;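 for activity, negative = less viability: 0% = DMSO-treated cells and -100% = media-only wells without cells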
# Conditions: HT-1080-NT fibrosarcoma viability, CellTiter-Glo ATP luminescence, 48 h; activity, negative = less viability: at 46.1 µM (top of the series) unless noted
# Outline: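 Toxicity toward the 2HG-producing NT line was scored as %Activity, normalised to DMSO and no-cell wells, from CellTiter-Glo luminescence after 48 hours' treatment.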
# Potency is the fitted concentration of half-maximal effect; tags give direction and shape of the fitted curve.
Structure (SMILES),"activity, negative = less viability",Potency
CNC(=S)N/N=C/c1c(C)cccc1Cl,inactive: -3.61%,–
Cc1nn2c(nc(N3CCCCC3)c3ccccc32)c1C=O,–,"inconclusive [cytotoxic, partial curve]"
O=C(CNc1ccc(C(F)(F)F)cc1)Nc1cccc(S(=O)(=O)N2CCCC2)c1,inactive: -10.1%,–
C=CC[C@@H](CC(=O)N(CCO)Cc1ccccc1)C(=O)NC[C@@H](OC(=O)[C@@H](CC=C)Cc1ccc(F)cc1)c1ccccc1,–,"inconclusive [cytotoxic, single point]"
COc1cc(/C=C2/SC(=S)N(CC(=O)Nc3nc4ccccc4s3)C2=O)cc(OC)c1OC,–,"inconclusive [cytotoxic, full curve, poor fit]"
CN(C)c1ccc(C(=O)C(O)c2ccccc2Cl)cc1 (stereo unspecified),inactive: -8.01%,–
CC(=O)NC(c1ccc(C(C)C)cc1)c1c(O)ccc2ccccc12 (stereo unspecified),–,"inconclusive [cytotoxic, single point]"
CCOC(CCn1ccc(O)c(Cc2ccc(Cl)cc2)c1=O)OCC,inactive: -1.33%,–
Cn1cccc1-c1nc2ccc(NC(=O)c3cccs3)cc2[nH]1,inactive: -9.17%,–
CN(C)CCNC(=O)COc1ccc(C23CC4CC(CC(C4)C2)C3)cc1,–,"inconclusive [cytotoxic, single point]"
COc1cc2c(cc1NC(=O)CN(C)Cc1ccc(OC)c(OC)c1)oc1ccccc12,–,"inconclusive [cytotoxic, partial curve]"
N#Cc1c(-c2ccccc2)nc(SCC(=O)Nc2ccc(OC(F)(F)Cl)cc2)[nH]c1=O,inactive: 7.54%,–
CCCC(=O)NC(c1ccc(OC)c(OC)c1)c1cc(Cl)c2cccnc2c1O (stereo unspecified),inconclusive: -28.8% [cytotoxic],–
CC(C)CC(=O)Nc1nnc(SCC(=O)Nc2nccs2)s1,inactive: 2.93%,–
Cc1ccc(/C=N/Nc2nncn2N)cc1,–,"inconclusive [cytotoxic, single point]"
COc1ccc2c(c1)CCc1c(C(=O)Nc3c(C)n(C)n(-c4ccccc4)c3=O)noc1-2,–,"inconclusive [rising, partial curve]"
Cc1ccc(S(=O)(=O)N2CCC(C(=O)N/N=C/c3cccnc3)CC2)cc1,inactive: -0.91%,–
COc1cccc(NC(=O)n2ncc3c(C)cccc32)c1,–,"inconclusive [cytotoxic, single point]"
CCCCNCc1cc(OCC)c(OCC)cc1Br,inactive: -12.8%,–
O=C(NCC1CCCO1)c1coc2nc3ccccc3nc12 (stereo unspecified),–,"inconclusive [cytotoxic, partial curve]"
CC(C)(CNC(=O)CC1C(=O)NCCN1Cc1cccc(F)c1F)N1CCOCC1 (stereo unspecified),–,"inconclusive [rising, partial curve, poor fit]"
COCCNC(=O)c1ccc(C(=O)C(=O)c2ccccc2)cc1,inconclusive: 32.4%,–
O=C(COC(=O)/C=C/c1ccc([N+](=O)[O-])cc1)Nc1ccc2[nH]c(=O)[nH]c2c1,inactive: 0.387%,–
Clc1cccc(-c2nc(-c3ccccn3)no2)c1,–,"inconclusive [cytotoxic, single point]"
CCC(=O)c1ccc(OCC(O)CN2CCN(c3ccc(F)cc3)CC2)cc1 (stereo unspecified),inactive: -0.94%,–
COCCNS(=O)(=O)c1cc(-c2nn(C)c(=O)c3ccccc23)ccc1C,inactive: -19.7%,–

Structure (SMILES),"activity, negative = less viability",Potency
O=C(Nc1ccc(Cl)cn1)c1ccc([N+](=O)[O-])o1,–,active: 23.1 µM
COc1ccc(-c2cc(C(F)(F)F)nc(S(C)(=O)=O)n2)cc1,–,active: 18.4 µM
CC1=Nn2c(nnc2-c2ccc(F)cc2)SC1,inactive: 3.97%,–
O=C(O)/C=C/C(=O)c1c(-c2ccccc2)[nH]c2ccccc12,inactive: -3.27%,–
C(=N\Nc1nc2ccccc2[nH]1)/C1CCCCC1,–,"inconclusive [cytotoxic, single point]"
COc1cc(-c2cc(NC(C)=O)c3ncc(-c4ccccc4)n3c2)cc(OC)c1OC,–,"inconclusive [cytotoxic, partial curve]"
N=c1c(C(=O)NCCc2ccccc2)cc2c(=O)n3ccccc3nc2n1Cc1ccco1,–,"inconclusive [cytotoxic, partial curve]"
Nc1nc(N2CCN(c3ccccc3)CC2)n[nH]1,inactive: 13.7%,–
CC1CCCN(CCCNC(=O)c2cc3c(s2)-c2ccccc2OC3)C1 (stereo unspecified),–,active: 20.6 µM
COc1cc2c(cc1OC)C(c1cccs1)N(C(=S)NC(C)C)CC2 (stereo unspecified),–,"inconclusive [cytotoxic, partial curve]"
O=C(NCCCN1CCOCC1)c1ccc(CSc2ccc(Cl)cc2)cc1,–,active: 18.4 µM
Cc1ccccc1C(=O)Nc1scc(-c2ccc(Br)cc2)c1C(=O)O,–,"inconclusive [cytotoxic, single point]"
CCN(C(=O)c1cc([N+](=O)[O-])ccc1NCc1cccnc1)c1ccccc1,–,"inconclusive [cytotoxic, single point]"
COc1ccc(-c2c(-c3cc(OC)c(OC)c(OC)c3)noc2C)cn1,–,"inconclusive [cytotoxic, partial curve]"
COC(=O)C1=CN(Cc2ccc(OC)c(OC)c2)C=C(C(=O)OC)C1c1cccs1,inactive: -6.81%,–
COc1ccccc1OCCCn1cc(C#N)c2ccccc21,inactive: 0.338%,–
COc1ccc(-c2cc(=O)[nH]c(NCc3ccccc3)n2)cc1,–,"inconclusive [cytotoxic, single point]"
N#Cc1ccccc1NC(=O)CNc1ccccc1N1CCCCC1,–,"inconclusive [cytotoxic, single point]"
COc1ccc2c(c1)c(=O)oc1cc(OCC(=O)N3CCC(C)CC3)ccc12,–,"inconclusive [cytotoxic, single point]"
CCN(CC)CCCNc1nc(-n2nc(C)cc2C)nc2sc3c(c12)CC(C)(C)OC3,–,"inconclusive [cytotoxic, single point]"
COCCCNC(=O)c1ccccc1NS(=O)(=O)c1ccc(C)cc1,inactive: 1.03%,–
COc1cccc(NC(=O)CN(C)C(=O)c2ccc(-c3ccccc3Cl)o2)c1,inactive: -0.591%,–
Cc1cccc2sc(N(CCCN(C)C)C(=O)c3ccc(C(=O)c4ccccc4)cc3)nc12,–,"inconclusive [cytotoxic, single point]"
Cn1c(-c2c(N)n(C3CCCC3)c3nc4ccccc4nc23)nc2ccccc21,–,"inconclusive [cytotoxic, single point]"
CC(C)=CCCC(C)CN1CCC(n2nccc2NC(=O)c2cccnc2)CC1 (stereo unspecified),inactive: -3.47%,–
Cc1cc(C)c(/C=N/NC(=O)c2nnn(-c3nonc3N)c2CN2CCC(C)CC2)c(C)c1,–,"inconclusive [cytotoxic, single point]"

Structure (SMILES),"activity, negative = less viability",Potency
CCCC1(c2ccccc2)NC(=O)N(CC(=O)c2[nH]c(C)c(C(=O)OCC)c2C)C1=O (stereo unspecified),–,"inconclusive [cytotoxic, partial curve]"
CCCOc1ccc(C(=O)NNC(=S)NC(=O)c2cccs2)cc1,–,"inconclusive [cytotoxic, single point]"
CN1CCN(C(c2ccccc2)c2ccc(Cl)cc2)CC1 (stereo unspecified),–,"inconclusive [cytotoxic, single point]"
OC1c2cc(Br)ccc2N=C2CCCN21 (stereo unspecified),–,"inconclusive [cytotoxic, single point]"
O=C(COc1ccc2c(-c3ccccc3)cc(=O)oc2c1)NC1CCS(=O)(=O)C1 (stereo unspecified),–,"inconclusive [cytotoxic, partial curve]"
CCn1c(=O)c2ccccc2n2c(SCC(=O)N3CCc4ccccc4C3)nnc12,inactive: 2.03%,–
c1ccc(CCNc2nc(-c3ccncc3)cs2)cc1,inactive: -7.19%,–
CCCCCCCCCCOC(=O)Cn1c(COc2ccc(C)cc2)[n+](C)c2ccccc21,–,active: 18.4 µM
CC1CCN(CCCNC(=O)CCCNC(=O)Cn2cnc3sc4c(c3c2=O)CCCC4)CC1,inactive: -2.92%,–
Cn1nccc1C(=O)OCC(=O)Nc1cccc(Cl)c1,inactive: 5.79%,–
CC(C)(C)n1nnnc1C(c1cccnc1)N1CCN(c2ccccc2F)CC1 (stereo unspecified),inactive: 13.4%,–
Cc1cccnc1C(c1ccc(F)cc1)N(C)C(=O)C1CCN(CCCOc2ccc(F)cc2)CC1 (stereo unspecified),–,"inconclusive [cytotoxic, single point]"
Cc1ccc(N2CCN(S(=O)(=O)c3ccc4c(c3)NC(=O)C(C)C(=O)N4)CC2C)cc1 (stereo unspecified),inactive: 1.76%,–
O=C(NNC1CC(=O)N(c2ccccc2)C1=O)c1cccnc1 (stereo unspecified),–,"inconclusive [rising, full curve, poor fit]"
Cc1cccc(OCCNC(=O)CCc2ccccc2)c1,inactive: 14.2%,–
Cc1cccc(N2CCN(C(=O)CCNS(=O)(=O)c3ccc4c(c3)oc(=O)n4C)CC2)c1C,inactive: -26.6%,–
O=C(O)C1=C[C@H](c2ccc3c(c2)OCO3)C[C@H](OCc2ccc(CO)cc2)O1,–,"inconclusive [cytotoxic, single point]"
O=C(Nc1ccc(Br)cc1)c1cc(-c2ccncc2)nc2ccccc12,–,active: 6.51 µM
O=C(CNC(=O)Cc1ccccc1)N=Nc1c(O)n(Cc2ccc3c(c2)OCO3)c2ccccc12,inactive: -9.58%,–
CCNC(=O)C1CCCN(C(=O)c2cccc(C#N)c2)CC1 (stereo unspecified),–,"inconclusive [rising, single point]"
Cc1nn(-c2ccccc2)c(C)c1C(=O)OC(C)C(=O)NC1CCCCC1 (stereo unspecified),–,active: 20.6 µM
COc1ccc(Nc2cnn(-c3nc4ccccc4s3)c(=O)c2Cl)cc1,–,"inconclusive [cytotoxic, single point]"
OCCC1CN(Cc2cccn2-c2ncccn2)CCN1CCc1ccccc1 (stereo unspecified),inactive: 0.133%,–
C=CCNCC(=O)Nc1sc2c(c1C(=O)Nc1ccc(OC)cc1OC)CCC2,inactive: 10.4%,–

# — PubChem BioAssay AID686970 (National Center for Advancing Translational Sciences (NCATS), 2013)
